Test results taken from the supplement of paper PMC10126150.
Values marked as one replicate rest on one cluster of the flow cell; about a third of the high ones do not repeat.

System: ATP
Assay: switch fluorescence ratio, 500 uM ATP over buffer (Cy3 cluster intensity, sum of 5 cycles each) (fold (ratio)); higher = stronger signal-on switching upon ATP binding; sequences stand for … in TCGTCGGCAGCGTCAGATGTGTATAAGAGACAGTTTTTTTTTTTTTTTTTTTTTTTTT…TC
Settings: aptamer strand: ATP DNA aptamer (quencher-CACCTGGGGGAGTATTGCGGAGGAAGG + anchor), 100 nM annealed; ATP concentration: 500 uM; one replicate
Outline: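 After annealing to 100 nM quencher-labelled ATP aptamer, Cy3-labelled switching-strand clusters on a modified Illumina MiSeq flow-cell were imaged in selection buffer. A second image followed after 15 min with 500 uM ATP at 22 °C, and five such buffer/ATP cycles were done, each separated by NaOH stripping and re-annealing. The fluorescence ratio, averaged per switch-domain sequence, is summed target-cycle over summed buffer-cycle Cy3 intensity per cluster, with clusters outside 100-1000 RFU excluded.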
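Note: ATP exposure 15 min at 22 °C before imaging.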

Sequence | switch fluorescence ratio
ATGTGATGTG | 0.95
ATGAATCGAG | 0.972
GAGCTTCGAC | 1.14
TGAACTTGAT | 1.05
TTCTCCGTGG | 0.986
GTCAGGTGTA | 1.12
TATCTATCTG | 0.996
CCGGTGTATT | 1.1
CGCATTACGT | 6.68
GTTAACTTGG | 0.988
ATCGGGGGAT | 1.03
GGGTGGAGAT | 1
GATAAAAACT | 2.5
ACTGTGACCG | 1.04
TGCAATTGGA | 1.01
CAAATTTATG | 0.949
ACATTAGATA | 1.05
AAGAGTACCC | 0.968
ATTACTGGGA | 1.01
GTGCCACTTG | 0.958
CACGTTTTCA | 1.15
GATATGAATG | 0.998
AGTTTAGCAT | 1.05

Sequence | switch fluorescence ratio
AGCTACGCTA | 0.99
ATGCGTGGTC | 0.961
TATGGGCATA | 1.04
CACATGGGT | 0.949
AGCGTCCCCA | 1.03
AACAAAGTC | 1
GTCGAGCCGG | 1.04
CGTTAGGTCC | 1.04
CAAAGTATTC | 0.995
TAGCGAAACG | 1.08
CATAATTAAC | 1.04
AGATGCGTGC | 1.01
ACGAGCTCG | 1.01
TCCAGCGGAG | 1.01
TCATTTTAT | 0.941
ACGTCCATGT | 1
GTCGCAGAAG | 0.955
CTTATGGTTC | 1.03
TCAGGTGTGG | 1.11
CGTTCGGGGA | 0.995
TATACGTTTA | 1.01
GATTTGCGG | 1.04
TGTAAGCCGT | 1.03

Sequence | switch fluorescence ratio
ACATAAGAC | 1.05
GAATCTGGGT | 0.999
AGTCCCGTTG | 1.04
TTAAAATAT | 0.982
ATAATAGGCT | 1.04
TGCGTTCGGT | 1.01
ATGCCCTAGC | 1.06
CACGGGCTTA | 1.03
GACGTTCCTC | 2.14
CTCGCACTA | 2.69
TGGCACACCG | 0.987
CGGTGATATA | 0.986
AATATGGTGT | 1
TTCAAAGTC | 0.97
TTCGAGTTCT | 0.96
TACCAGGGGC | 1.81
TATGAGTCGC | 1
ACAAATAAC | 0.985
GGTCGTGCCC | 0.977
CCGTGCTCAG | 1.13
TCATGGTTAC | 1.06
ATGAACTAGC | 1.03
CATAGCAGTG | 1.05

Sequence | switch fluorescence ratio
TAAAAGACCC | 1
ACTGCGATTG | 1.08
TGCTTTAACC | 1.14
TAGACGAGGC | 0.989
TACTAACGGT | 1.42
CATAAGGAGG | 0.978
TGGCGAGCCG | 1.03
AGCTACTGTA | 1.16
TAAAATCGCG | 1.07
TAGGCGTGAT | 1.02
AAGTTATTC | 1.04
GTGAAGTAGA | 1.01
TGTAGGTAGG | 1
ATCTCCTCAG | 1.13
GAAAAAACGG | 1.04
TGATTTAGTG | 0.965
AGGCTTGTTC | 0.955
CGGGTAAAAA | 0.995
TCTAGAAAGT | 0.971
AACCTGAGAA | 0.953
TCCTTGGGG | 1.04
CCTATTTATG | 0.963
ATGGGCCAAC | 1.02

Sequence | switch fluorescence ratio
TATACTAAGC | 1.04
GCAGCGTGTA | 1.01
GCTGGTATGT | 0.981
CTGATTACCC | 1.01
TTGTGTTAAT | 0.978
ATGCACAACA | 1.06
AGAGCTTGTG | 0.97
ACGTCTCCTG | 0.998
ATAGAGGGAC | 1.05
GACACACGCT | 1.43
TGCATGAGGA | 1.01
CGGCTTATTG | 0.985
GCTTTCGGAG | 1.48
AAATAGATC | 0.962
AAAGTAATAG | 1.14
TAATATTA | 1
TTGACTATGG | 1.06
TTGTGCTATC | 1.11
GAGTCCGTCG | 0.981
GTCGCAAGCA | 1.12
TAATTTAGTT | 0.998
AGATCTGTTG | 0.994
TCTGAGATGT | 1.01

Sequence | switch fluorescence ratio
CGACGGGTTG | 0.944
GGACCTTTTT | 0.996
CTACTTTCTT | 1.03
TTGTGAAGTC | 0.978
GCTCTAGTCT | 0.993
TGCAGGCGGA | 1.01
ATTAGTGAGT | 0.958
TACATTGGGA | 0.956
CCGTCTTGAA | 1.02
AGGGGATGGA | 1.04
GCGACACAGG | 1.58
GACTAGTTTG | 0.989
AGGATCTAAT | 0.971
CGTTCATCGG | 0.972
GAAATTTGCG | 0.975
CACGGAACGA | 1.05
AGCAGTACGG | 2.06
TGGCGGCTTA | 0.987
ATAGTATAAT | 0.968
GACACTCTGA | 0.999
CGCAAACGGG | 2.87
TAATTGCCAG | 1.02
CTAAGTACTT | 1.44

Sequence | switch fluorescence ratio
CACCGTGGGG | 1.02
CTGACAGATC | 1.09
AGGTCTTGTG | 0.995
GGCGGTGCGG | 1
GCCGGACGCG | 1.02
GTGCTTTGAT | 1.07
TGGGTCGTCC | 1
TCGGTAACGT | 0.975
CAAGGGATT | 0.988
GGCCGGGCTC | 0.98
TATTGATTAC | 1.07
AGATCGATTA | 1.01
TATTGGCCTG | 1.01
GCCATTCTCA | 1
ACGGTGTGTC | 1.01
CTTGTTCGTT | 0.982
CTAATCCTTT | 0.928
CATAAAAC | 0.996
CACTCCTCCC | 1.83
